Measured values published in the BET-seq Pho4 binding data (Le et al. 2018).
This is one part of the list. The energies were worked out here from pooled read counts, against the library average; single values are noisy.

The sequences below were run against T1, Pho4 (S. cerevisiae) (UniProt P07270) (assay: relative binding free energy (BET-seq); higher = weaker binding). Conditions: reference: library average.
T1 sequence: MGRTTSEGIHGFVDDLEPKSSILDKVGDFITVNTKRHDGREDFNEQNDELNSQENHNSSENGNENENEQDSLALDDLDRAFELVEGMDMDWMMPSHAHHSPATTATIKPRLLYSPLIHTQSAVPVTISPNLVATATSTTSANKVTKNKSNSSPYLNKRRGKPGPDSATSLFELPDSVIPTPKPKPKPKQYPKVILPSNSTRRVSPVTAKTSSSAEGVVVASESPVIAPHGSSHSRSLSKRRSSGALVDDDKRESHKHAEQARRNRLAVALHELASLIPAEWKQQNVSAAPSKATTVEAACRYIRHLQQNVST
With GTATTCACGTGTGTCA the “relative binding free energy” value was 0.23 kcal/mol.
In the case of GGATACACGTGTGCGT, the “relative binding free energy” value is reported as -0.03 kcal/mol.
With GAATTCACGTGAGTAG the “relative binding free energy” value was 0.46 kcal/mol.
For TATGTCACGTGTGGCT, the “relative binding free energy” value was 0.1 kcal/mol.
ATGTTCACGTGGCGTG was tested, and the “relative binding free energy” value was 0.06 kcal/mol.
GGGGTCACGTGATCGG was tested, and the “relative binding free energy” value was 0.2 kcal/mol.
AAGTGCACGTGGGGAT was tested, and the “relative binding free energy” value was -0.13 kcal/mol.
For GTGGTCACGTGTTGTG, the “relative binding free energy” value was 0.12 kcal/mol.
GGGGTCACGTGGGGCG was tested, and the “relative binding free energy” value was 0.08 kcal/mol.
In the case of AAAGTCACGTGTTTGC, the “relative binding free energy” value is reported as 0.15 kcal/mol.
For GGCGTCACGTGGGCCG, the “relative binding free energy” value was -0.05 kcal/mol.
For GTGCGCACGTGTAGTG, the “relative binding free energy” value was -0.09 kcal/mol.
For TCGCTCACGTGTATGG, the “relative binding free energy” value was 0.28 kcal/mol.
TAAGTCACGTGGTGTT was tested, and the “relative binding free energy” value was 0 kcal/mol.
With GCTGGCACGTGAAGGT the “relative binding free energy” value was 0.21 kcal/mol.
With CGATTCACGTGGTGGC the “relative binding free energy” value was 0.3 kcal/mol.
For AGAGTCACGTGTCGAG, the “relative binding free energy” value was 0.09 kcal/mol.
In the case of ATCGTCACGTGGGACG, the “relative binding free energy” value is reported as 0.08 kcal/mol.
With CAGGTCACGTGGGGCG the “relative binding free energy” value was 0 kcal/mol.
For GTCATCACGTGTAGTG, the “relative binding free energy” value was 0.17 kcal/mol.
With TCCTGCACGTGGGGGT the “relative binding free energy” value was -0.3 kcal/mol.
TGTAACACGTGGTAAG was tested, and the “relative binding free energy” value was -0.05 kcal/mol.
With CGTAACACGTGGTCGT the “relative binding free energy” value was 0.08 kcal/mol.
With TGTTACACGTGGGCGC the “relative binding free energy” value was -0.03 kcal/mol.
With ATGTGCACGTGCTTTA the “relative binding free energy” value was -0.1 kcal/mol.
In the case of GGGGGCACGTGTCATT, the “relative binding free energy” value is reported as -0.03 kcal/mol.
With ATACTCACGTGTGTTG the “relative binding free energy” value was 0.18 kcal/mol.
In the case of GCTAGCACGTGAGGGT, the “relative binding free energy” value is reported as 0.22 kcal/mol.
In the case of TTCCGCACGTGGTTTA, the “relative binding free energy” value is reported as -0.11 kcal/mol.
In the case of AGAAACACGTGTTGAG, the “relative binding free energy” value is reported as 0.1 kcal/mol.
In the case of GGCTGCACGTGAGTTG, the “relative binding free energy” value is reported as 0.22 kcal/mol.
For TGAAACACGTGTGGGT, the “relative binding free energy” value was 0.09 kcal/mol.
TAGTGCACGTGGTCCT was tested, and the “relative binding free energy” value was -0.16 kcal/mol.
GGAGCCACGTGGGTTT was tested, and the “relative binding free energy” value was 0.05 kcal/mol.
For TGTTCCACGTGGTTTC, the “relative binding free energy” value was 0.11 kcal/mol.
In the case of GTATGCACGTGCTATG, the “relative binding free energy” value is reported as 0.03 kcal/mol.
In the case of AGTGTCACGTGTTATA, the “relative binding free energy” value is reported as -0.07 kcal/mol.
For GTTAACACGTGGAGCG, the “relative binding free energy” value was 0.07 kcal/mol.
For ACTTACACGTGTGTGG, the “relative binding free energy” value was 0.03 kcal/mol.
For TTGTACACGTGATTAC, the “relative binding free energy” value was 0.21 kcal/mol.
For AAGGCCACGTGTTGGT, the “relative binding free energy” value was -0.09 kcal/mol.
For CTTGTCACGTGATTCT, the “relative binding free energy” value was 0.21 kcal/mol.
In the case of ATTGGCACGTGAACTA, the “relative binding free energy” value is reported as 0.15 kcal/mol.
With GCTGGCACGTGTAAGA the “relative binding free energy” value was 0.18 kcal/mol.
For TGTGTCACGTGCCGGG, the “relative binding free energy” value was 0.14 kcal/mol.
For TGTTCCACGTGGTAAT, the “relative binding free energy” value was -0.06 kcal/mol.
In the case of AAGAGCACGTGAAAGG, the “relative binding free energy” value is reported as 0.24 kcal/mol.
ATGGACACGTGAATGT was tested, and the “relative binding free energy” value was 0.18 kcal/mol.
GCTTACACGTGGGTTA was tested, and the “relative binding free energy” value was -0.07 kcal/mol.
For GGTTGCACGTGTGTTG, the “relative binding free energy” value was 0.26 kcal/mol.
In the case of ACTAGCACGTGAGGGG, the “relative binding free energy” value is reported as 0.16 kcal/mol.
TGGTGCACGTGCATGG was tested, and the “relative binding free energy” value was -0.15 kcal/mol.
In the case of TTCTTCACGTGATGCG, the “relative binding free energy” value is reported as 0.31 kcal/mol.
For GTACGCACGTGGGTGT, the “relative binding free energy” value was -0.19 kcal/mol.
In the case of TAGTACACGTGGGCGG, the “relative binding free energy” value is reported as -0.05 kcal/mol.
For CCAGTCACGTGTGTGG, the “relative binding free energy” value was 0.11 kcal/mol.
In the case of GATCTCACGTGTGGGA, the “relative binding free energy” value is reported as 0.19 kcal/mol.
For TAGATCACGTGGTCGT, the “relative binding free energy” value was -0.04 kcal/mol.
With AGTTTCACGTGGCGGC the “relative binding free energy” value was 0.26 kcal/mol.
GGCTACACGTGGGGTC was tested, and the “relative binding free energy” value was -0.06 kcal/mol.
With CAGTTCACGTGTTTGA the “relative binding free energy” value was 0.11 kcal/mol.
ATTATCACGTGATGTG was tested, and the “relative binding free energy” value was 0.19 kcal/mol.
ATGTTCACGTGGTGTC was tested, and the “relative binding free energy” value was 0.24 kcal/mol.
For GTTTACACGTGGGCAT, the “relative binding free energy” value was -0.06 kcal/mol.
In the case of TTTCTCACGTGTAGCT, the “relative binding free energy” value is reported as 0.24 kcal/mol.
For TTAATCACGTGGTCTT, the “relative binding free energy” value was 0.05 kcal/mol.
For TTTAGCACGTGTCGTC, the “relative binding free energy” value was -0.02 kcal/mol.
CTAGTCACGTGGTAGG was tested, and the “relative binding free energy” value was 0 kcal/mol.
GTGGTCACGTGGGCAA was tested, and the “relative binding free energy” value was 0 kcal/mol.
In the case of TAATACACGTGGTGAA, the “relative binding free energy” value is reported as 0.09 kcal/mol.
TAAGGCACGTGGAGGG was tested, and the “relative binding free energy” value was -0.23 kcal/mol.
For GGGTACACGTGGGCGA, the “relative binding free energy” value was -0.11 kcal/mol.
TCTTGCACGTGTGTGC was tested, and the “relative binding free energy” value was 0.12 kcal/mol.
